Assay results taken from PubChem BioAssay AID1508623 (National Center for Advancing Translational Sciences (NCATS), 2021).
In all, about 48,000 compounds went through this assay and about 450 (0.94%) were called active. Roughly 19% stayed inconclusive and do not appear here. Calls follow the shape of the dose curve; as a rule, active = well fitted inhibition curve with a large enough effect; inconclusive = small, poorly fitted or top-dose-only effect; inactive = no such curve, though single readings can be large or run the other way. Some of the results follow.

assay: Primary qHTS for Identification of Small Molecule Inhibitors of Huntingtin Promoter Activity; settings: HEK293 HTT promoter firefly luciferase reporter (activity 0% = vehicle and -100% = no light), 24 h; series mostly up to 57.5 µM; activity change, negative = inhibition: at the top concentration; also: nearly all actives have a fitted effect of over 50% in size
In short: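 Luminescence was read after Dual-Glo reagent and a 10 min room-temperature incubation. Values were normalized to vehicle (0% activity) and zero RLU (-100% activity). Reporter HEK293 cells had been exposed to compounds (up to 57.5 uM final) for 24 h.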

SMILES | activity change, negative = inhibition
Cc1ccccc1-c1nc(SCC(=O)NCc2ccco2)c2c(=O)n(C)c(=O)n(C)c2n1 | inactive: 15.3%
COc1ccc2oc(=O)c(-c3csc(-c4ccc(Br)cc4)n3)cc2c1 | inactive: -6.33%
COc1cccc(-n2cc(C(=O)NCCc3ccc(C)cc3)c3ccccc3c2=O)c1 | inactive: -16.8%
COc1ccc(C2(Nc3cccc(C(=O)O)c3C)C(=O)c3ccccc3C2=O)cc1 | inactive: -2.77%
O=C(/C=C\c1ccc2c(c1)OCO2)NC1CC(=O)N(c2ccc(Cl)cc2)C1 (stereo unspecified) | inactive: -2.98%
COc1ccc(-c2csc3nc(-c4ccccc4C)oc(=O)c23)cc1OC | inactive: -9.93%
Cc1ccc(NC(=O)C2CCN(S(=O)(=O)c3c(C)noc3C)CC2)c(C)c1 | inactive: -9.33%
CC(=O)N1CCOc2cc(S(=O)(=O)NCc3ccc(C)cc3)c(Cl)cc21 | inactive: -12.3%
CCOc1ccccc1NC(=O)c1cc(=O)c2ccc(C)cc2o1 | inactive: -17.4% [at 11.5 µM]
O=C(Cc1cccs1)NC1CC(=O)N(c2cccc(F)c2)C1 (stereo unspecified) | inactive: 5.4%
COc1cccc(C(=O)Nc2ccc3nc(SCC(=O)N4CCOCC4)sc3c2)c1 | inactive: -15.9%
Cn1c(=O)n(C)c2cc(NS(=O)(=O)c3ccc(F)cc3)ccc21 | inactive: -1.62%
COc1cc2nc(NCCC(C)C)n3nc(-c4ccccc4)nc3c2cc1OC | inactive: -8.8%
Cc1cc(C)n2c(Nc3ccc(Cl)cc3)c(-c3ccsc3)nc2n1 | inactive: -21.9%
Cc1ccc2c(CN3CCN(C(=O)c4ccc(F)cc4)CC3)cc(=O)oc2c1 | inactive: -10.3%
Cc1ccc(OCC(=O)N(c2ccc(C)cc2)S(=O)(=O)c2ccc(Cl)cc2)cc1 | inactive: -29.6%
CCc1c2c(nc3ccc(OC(=O)N4CCC(N5CCCCC5)CC4)cc13)-c1cc3c(c(=O)n1C2)COC(=O)[C@]3(O)CC | inactive
O=C(CS(=O)(=O)c1cccc2nsnc12)Nc1ccccc1 | inactive: -0.807%
COc1ccccc1CNC(=O)CN1C(=O)COc2ccc(S(=O)(=O)Nc3ccccc3)cc21 | inactive: -21.4%
CC(C)(C)c1ccc(C(=O)NCCc2csc3nc(-c4ccccc4F)nn23)cc1 | inactive: 0%
CSCCC(NS(=O)(=O)c1ccc2c(c1)oc(=O)n2C)C(=O)N1CCN(c2cc(C)ccc2C)CC1 (stereo unspecified) | inactive: -11.8%
COc1ccc(C2CC(=O)NC(NC(=O)c3ccc(Br)cc3)=N2)c(OC)c1OC (stereo unspecified) | inactive: -20.9%
O=C(Nc1cc(-c2nc3ccccc3s2)ccc1Cl)c1cc2ccccc2o1 | inactive: 21.3%
O=S(=O)(Nc1ccccc1C(F)(F)F)c1ccc(N2CCCCS2(=O)=O)cc1 | inactive: -25.3%
COc1cc(/C=C/c2nc(C#N)c(N3CCCCCC3)o2)cc(OC)c1OC | inactive: -14.9%
COc1ccc(Cl)cc1NS(=O)(=O)c1ccc2[nH]c3c(c2c1)CCCC3 | inactive: -17.8%
